The campaign covered roughly 48,000 compounds. About 1,200 (2.5%) were called active. Roughly 2% stayed inconclusive and do not appear here.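 How the source made its calls: active means activation of at least 60% and not above a set upper limit (about 1 call in 100 departs from these limits); inconclusive means activation of 40% to 60%, or above that upper limit; inactive means activation under 40%.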 The list shows a part of the results.

The test concerns the target Probable G-protein coupled receptor 32 (Homo sapiens) (UniProt O75388). Briefly: qHTS for Agonists of Human Resolvin D1 Receptor DRV1. Further: 0% is about no effect. To be noted: CHO-K1 GPR32 beta-arrestin PathHunter luminescence, 90 min; at 76.9 µM; hits give high values; zero percent set by DMSO-only wells. In short, it runs like this: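 Agonism was scored by beta-Gal fragment complementation (chemiluminescent read, 1 h detection at ambient temperature) reporting beta-arrestin binding to GPR32 in engineered CHO-K1 cells. Compound treatment lasted 90 min at 37 C, normalized to a DMSO basal control.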
Sequence of UniProt O75388 (O75388 whole entry, looked up, the tested form may be a part): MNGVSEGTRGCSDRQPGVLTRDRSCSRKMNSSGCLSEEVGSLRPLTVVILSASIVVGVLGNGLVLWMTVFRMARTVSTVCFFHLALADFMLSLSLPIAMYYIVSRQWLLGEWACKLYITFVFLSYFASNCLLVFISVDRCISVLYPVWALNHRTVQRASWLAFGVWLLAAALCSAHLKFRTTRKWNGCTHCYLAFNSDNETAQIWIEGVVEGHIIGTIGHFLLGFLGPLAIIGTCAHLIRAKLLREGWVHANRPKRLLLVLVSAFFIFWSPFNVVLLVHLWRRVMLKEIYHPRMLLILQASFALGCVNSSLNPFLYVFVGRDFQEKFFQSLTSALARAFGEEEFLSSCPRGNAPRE
Background: qHTS replaces the single test concentration by a dilution series.
Consider `CCOc1ccccc1CNC(=O)c1oc2c(c1C)-c1nn(Cc3cccc(Cl)c3)cc1CC2`, for which the activation was inactive: -10.9%.

With `Cc1ccc2c(=O)c(C(=O)c3ccc(Cl)cc3)cn(CC(=O)Nc3ccc4c(c3)OCCO4)c2n1`, the activation was inactive: 11.4%.

Regarding `CCOc1ccc(Cn2c(CNS(=O)(=O)c3ccc(C(C)(C)C)cc3)nc3cccnc32)cc1`, the activation is inactive: -31.6%.

In the case of `CCOC(=O)c1c(C)n(-c2ccccc2)c2ccc(OC(=O)c3c(F)cccc3F)cc12`, the activation is inactive: -6.98%.

For the molecule `COc1cccc(NC(=O)Cn2c(=O)n(Cc3ccc(C(=O)NCc4ccc(C)cc4)cc3)c(=O)c3ccccc32)c1`, the activation is inactive: -13.4%.

With `COc1ccc(Cl)cc1C(=O)NCCS(=O)(=O)N1CCN(c2ccccc2OC)CC1`, the activation is inactive: -16%.

In the case of `COc1ccc(CCNC(=O)C2c3ccccc3C(=O)N2Cc2ccccc2)cc1OC` (stereo not drawn), the activation was inactive: -4.33%.

With `CCOc1ccc(CNC(=O)C2=Cc3cccc(OC)c3OC2)cc1`, the activation was inactive: -7.49%.

For `O=C(NCCc1csc2nc(-c3ccccc3F)nn12)C(=O)Nc1cc(F)ccc1F`, the activation is inactive: 29.5%.

As to `CCOC(=O)c1c(C)oc2ncnc(Nc3cc(C)cc(C)c3)c12`, the activation was inactive: 3.67%.

Turning to `COc1ccc(N(C(=O)c2ccc(C(C)(C)C)cc2)S(=O)(=O)c2ccc(Cl)cc2)cc1`, the activation is inactive: -8.01%.

Regarding `COc1ccc(CNC(=O)c2cnn3c(C)c(Cc4c(F)cccc4Cl)c(C)nc23)cc1`, the activation is inactive: -20.8%.

On to `Cc1ccc(N2CC(NC(=O)c3cccc(Cl)c3)CC2=O)cc1C` (stereo not drawn), for which the activation was inactive: -5.07%.

As to `CCN1C(=O)c2ccccc2Sc2ccc(NC(=O)Nc3cccc([N+](=O)[O-])c3C)cc21`, the activation is inactive: -8.33%.

Turning to `CCC1=C(c2ccc(C)cc2)S(=O)(=O)N=C1N1CCC(C(=O)NCc2ccc(N(C)C)cc2)CC1`, the activation is inactive: -17.9%.

With `Cc1cccc(N2CCN(C(=O)c3cnc(N4CCCC4)nc3C)CC2)c1C`, the activation was inactive: 36.6%.

Turning to `COc1ccc(C2c3c(n(C)c4ccccc34)C(=O)N2CC(=O)Nc2cccc(Cl)c2C)cc1` (stereo not drawn), the activation is inactive: -22%.

As for `COc1cc(O)cc(O)c1`, the activation is inactive: -6.85%.

With `COC(=O)c1c(NC(=O)/C(C#N)=C/c2ccccc2)sc2c1C(C(=O)OC)CC2` (stereo not drawn), the activation is inactive: -2.69%.

In the case of `CCCCOc1ccc(C(=O)NCc2nnnn2-c2ccc(C)c(C)c2)cc1`, the activation is inactive: -16.9%.

With `CC1CCCN(C(=O)Cn2ncc3c([nH]c4ccccc43)c2=O)C1` (stereo not drawn), the activation was inactive: 22.1%.

Take `CCc1ccccc1Nc1sc(C(=O)c2cccc(OC)c2)c(N)c1S(=O)(=O)c1ccccc1`: the activation was inactive: -36.4%.

As for `CCOC(=O)N1CCc2c(sc3c2c(=O)n(-c2ccc(CC)cc2)c(=O)n3C)C1`, the activation was inactive: -6.72%.

Turning to `CCc1ccccc1NC(=O)Cn1c(=O)ccc2cc(S(=O)(=O)N3CCCC3)ccc21`, the activation was inactive: 14.1%.

With `CCCSc1ncc(Cl)c(C(=O)N(Cc2ccc(Cl)cc2)Cc2ccco2)n1`, the activation was inactive: -29%.

As for `Cc1ccccc1OCC(=O)N1CCC(c2nc3ccccc3s2)CC1`, the activation is inactive: 31.7%.

With `COc1ccc(OCc2ccc(-c3nc(C#N)c(N4CCCCC4)o3)o2)cc1`, the activation is inactive: -19.3%.

On to `COc1ccc(-n2c(=O)c3sc4ccccc4c3n(Cc3ccccc3C)c2=O)cc1OC`, for which the activation is inactive: -11.6%.

For the molecule `Cc1ccc(NC(=O)Cn2nc(N3CCN(c4ccccc4)CC3)ccc2=O)cc1F`, the activation is inactive: -9.65%.

For `COc1ccc(C(=O)c2c(N)c(C(=O)Nc3cccc(OC)c3)c3ccccn23)cc1`, the activation was inactive: 37.9%.

In the case of `Cc1c(C(=O)N(C)C)sc2c1c(=O)n(-c1ccc(Cl)cc1)c(=O)n2CC(=O)C(C)(C)C`, the activation is inactive: 11.1%.

For `CCC(C(=O)O)n1ccc2cc(S(=O)(=O)N3CCCCC3)ccc21` (stereo not drawn), the activation was inactive: -8.24%.

As to `COc1ccc(S(=O)(=O)N2Cc3ccccc3CC2C(=O)Nc2ccc(C)cc2C)cc1OC` (stereo not drawn), the activation is inactive: 10.6%.

As to `CCOC(=O)c1c(C)[nH]c(C)c1S(=O)(=O)N1CCC(C(=O)NCc2cccc(OC)c2)CC1`, the activation is inactive: 7.98%.

In the case of `CCC1CCCCN1S(=O)(=O)c1cc2c3c(c1)CC(=O)N3CCC2` (stereo not drawn), the activation is inactive: -33.4%.

With `COC(=O)c1sc2cccc(F)c2c1S(=O)(=O)N1CCN(c2cccc(C)c2)C(C)C1` (stereo not drawn), the activation is inactive: -6.8%.

On to `COc1ccc(CCNc2ncnc3c2nnn3C)cc1`, for which the activation is inactive: 30.9%.

For the molecule `Cc1nc2ccc(S(=O)(=O)N(CC(=O)Nc3ccc(F)cc3)Cc3ccccc3)cc2s1`, the activation was inactive: -9.44%.

For the molecule `CC1CCc2c(sc(NC(=O)CCCOc3ccccc3)c2C(N)=O)C1` (stereo not drawn), the activation was active: 95.9%.

As for `CCOc1ccc(-n2nc3ccc(NC(=O)Cc4ccccc4)cc3n2)cc1`, the activation was inactive: 47.3%.

As for `CCCOC(=O)c1c(NC(=O)c2cc3ccccc3c(=O)o2)sc2c1CCC(C)C2` (stereo not drawn), the activation is inactive: -4.25%.

Consider `CC(C)(C)OC(=O)N1CCC(c2c(C(=O)N3CCN(C(=O)c4ccco4)CC3)cnn2-c2ccc(F)cc2F)CC1`, for which the activation was inactive: -3.71%.

As for `Cc1cc(-c2ccc(C)c(S(=O)(=O)N3CCOc4ccc(Cl)cc43)c2)on1`, the activation was inactive: -1.75%.

For `CCc1ccccc1-n1c(N)c(C(=O)OC)c2nc3ccccc3nc21`, the activation is inactive: -0.12%.

As for `Cc1ccc(-c2nnc3c4ccccc4c(C)nn23)cc1NC(=O)c1ccccc1`, the activation is inactive: 8.4%.

As to `COC(=O)c1ccc(Cn2nnc3c(=O)[nH]c(C4CCCN(S(=O)(=O)c5ccccc5Cl)C4)nc32)cc1` (stereo not drawn), the activation was inactive: -9.53%.

Regarding `COc1ccc(-c2cn3c(C)c(C(=O)Nc4cc(C)cc(C)c4)sc3n2)cc1`, the activation was inactive: -28.8%.

Regarding `CCOC(=O)c1cnc2c(Cl)cc(Cl)cc2c1Nc1ccccc1OC`, the activation is inactive: 13.8%.

In the case of `COc1cc(NC(=O)c2nnn(CC(=O)Nc3cc(C)ccc3C)c2N)cc(OC)c1`, the activation is inactive: -9.92%.

In the case of `O=C(Nc1ccc(OC(F)(F)F)cc1)c1noc2c1CCCC2`, the activation was inactive: -14.1%.

Turning to `CCOC(=O)CCc1c(C)nc2cc(-c3cc(OC)cc(OC)c3)[nH]n2c1=O`, the activation is inactive: 2.49%.

For `CCOc1cc(C(=O)Nc2ccc3c(c2)n(C)c(=O)c(=O)n3C)cc(OCC)c1OCC`, the activation is inactive: -84.7%.

With `CCOc1ccc(-n2c(SCC(=O)Nc3ccc(CC)cc3)nc3c(oc4ccccc43)c2=O)cc1`, the activation was inactive: -16.6%.

For the molecule `COc1cc(NC(=O)c2cc(-c3cccc(OC)c3)n[nH]2)cc(OC)c1`, the activation is active: 81.5%.

`COC(=O)c1ccc(NC(=O)CC2C(=O)N(c3cccc(OC)c3)C(=O)N2C(C)C)cc1` (stereo not drawn): the activation was inactive: -9.3%.

`COc1ccccc1CNC(=O)c1cc2cc3ccc(Cl)cc3nc2o1`: the activation is inactive: 4.2%.

Take `COc1ccc(CCNC(=O)CCc2c(C)nc3c(c(C)nn3-c3ccc(C)c(C)c3)c2C)cc1OC`: the activation was inactive: 25.3%.

As for `C[C@@]1(C2CCCC2)Cc2cc(OCC(=O)O)c(Cl)c(Cl)c2C1=O`, the activation was inactive: -17.2%.

Turning to `CCOc1ccccc1NC(=O)Cn1c(=O)n(CCC(=O)NCc2ccc3c(c2)OCO3)c(=O)c2ccccc21`, the activation is inactive: -18.1%.

`COc1cc(OC)c(NC(=O)c2csc3c2CCC(C)C3)cc1Cl` (stereo not drawn): the activation is inactive: -7.53%.

Consider `CCc1ccccc1N1CC(c2nc3ccccc3n2CCCOc2ccc(Cl)cc2)CC1=O` (stereo not drawn), for which the activation is inactive: -7.11%.

Regarding `Cc1ccc(NC(=O)CCCn2c(=O)c3cccn3c3ccccc32)c(Cl)c1`, the activation is inactive: -19.4%.

Turning to `Cc1c(CNC2CCCCC2)c(C(=O)O)c(C)n1Cc1c(F)cccc1Cl`, the activation is inactive: -5.55%.

Consider `COc1ccccc1N1CCN(c2ccc(NC(=O)c3ccc(C)cc3)cc2C(=O)O)CC1`, for which the activation was inactive: -0.581%.

Consider `Nc1nnc(SCC(=O)Nc2ccc(Cl)cc2)s1`, for which the activation was inactive: 16.2%.

On to `O=C(CCOc1ccccc1)N(Cc1cccnc1)c1nc2c(F)cc(F)cc2s1`, for which the activation was inactive: -19.2%.

Turning to `COc1ccccc1OCCSc1nc(-c2ccc(C(C)(C)C)cc2)nc2cc(=O)[nH]n12`, the activation was active: 65.5%.

In the case of `Cc1ccc(CNC(=O)Cn2cc(S(=O)(=O)Cc3ccccc3Cl)c3ccccc32)cc1`, the activation is inactive: -11.8%.

With `CCOc1ccc(NC(=O)C(CC)n2c(=O)c(-c3ccccc3NC(C)=O)nc3ccccc32)cc1` (stereo not drawn), the activation was inactive: -10.4%.

`O=C(CSC1=Nc2ccccc2C2=NC(CCC(=O)NC3CCCCC3)C(=O)N12)Nc1cccc(C(F)(F)F)c1` (stereo not drawn): the activation is inactive: -0.573%.

For the molecule `Cc1cc(Cl)ccc1NC(=O)c1cccc(NC(=O)N2CCSc3ncccc32)c1`, the activation is inactive: 17.5%.

Regarding `COc1ccc(C(=O)Nc2cc3c(cc2C(=O)c2ccccc2Cl)OCCO3)cc1`, the activation is inactive: -20.7%.

`COc1cc(OC)c(NC(=O)N2CCSc3ccccc32)cc1Cl`: the activation was inactive: -24.9%.

Turning to `COc1ccc(CNC(=O)c2cnc3sc(N4CCOCC4)nn3c2=O)cc1`, the activation is inactive: 10.2%.

Turning to `CCOC(=O)c1c(NC(=O)CCCOc2ccccc2C)sc2c1CCC(C)C2` (stereo not drawn), the activation was inactive: 7.2%.

For `Fc1ccc(-n2ncc3c(NC4CCCCCC4)ncnc32)cc1`, the activation is active: 79.7%.

In the case of `CCOC(=O)c1c(C)oc2nc(C)nc(NCCCN3CCN(c4ccccc4)CC3)c12`, the activation was inactive: 6.37%.

Take `COC(=O)C(CCSC)NC(=O)C1CCN(c2ncnc3c2nc2n3CCCCC2)CC1` (stereo not drawn): the activation is inactive: -1.09%.

Turning to `CCOc1ccc(NC(=O)CCc2c(C)nc3nc(C)nn3c2C)cc1`, the activation is inactive: 13.3%.

Consider `N#Cc1ccccc1CN1C(=O)c2ccccc2Sc2ccc(C(=O)OCc3ccco3)cc21`, for which the activation is inactive: 2.92%.

Regarding `O=C(CCc1ccccc1)NCc1nc2cccnc2n1Cc1ccc(F)cc1`, the activation was inactive: -22.5%.

Regarding `CCOc1ccc(C(=O)N2CCC(c3nnc(-c4ccccc4OC)o3)CC2)cc1`, the activation was inactive: -3.25%.

As for `CCCCCCCC(=O)OCC(COC(=O)CCCCCCC)OC(=O)CCCCCCC`, the activation was inactive: 9.45%.

The values are drawn from PubChem BioAssay AID1346428 (National Center for Advancing Translational Sciences (NCATS), 2018).
